Data as given in PubChem BioAssay (Tox21).
Values joined by “and” are separate entries in the source; they are usually repeats but may differ in a detail not shown here. Equal values may be shown once. Inconclusive means that the source gave no clear call. Such entries were picked first, then a sample of the others. For some assays here: Potencies of inconclusive entries are doubtful fits and often do not repeat. Where a structure was tested more than once in an assay, its records may differ in their call. Active and inactive are the calls of the source. Unless noted, calls come from the whole dose curve; as a rule, active = well fitted curve in the direction sought with a large enough effect in the repeat runs; inconclusive = weak or mixed curves; inactive = no such curve, though single readings can be large; an effect the other way counts as inactive or inconclusive.

Legend:
[1] = qHTS assay to identify small molecule agonists of the retinoic acid receptor (RAR) signaling pathway (AID 1159553); settings: C3RL4 RARE luciferase reporter, agonist, 6 h; activation: at 73.3 µM (top of the series) unless noted; note: potency is the fitted concentration of half-maximal effect; for activation: % is set by controls: 0 for no effect and ±100 for the full control effect
How it was run: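 Compounds dissolved in DMSO were pinned onto C3RL4 cells seeded the previous day, and plates were held 6 hr at 37 C. RARE-driven luciferase output was then read by luminescence.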

[2] = qHTS assay to identify small molecule antagonists of the estrogen related receptor (ERR) signaling pathway from Tox21 library - cell viability counter screen (AID 1224834); settings: ERR reporter cells viability, CellTiter-Fluor, 17.5 h; series mostly up to 92.4 µM; note: nearly all actives have a fitted effect of over 30% in size; note: potency is the fitted concentration of half-maximal effect
How it was run: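 In this quantitative HTS format, ERR cells receive compounds in DMSO and are incubated for 17.5 h at 37 C. Live-cell protease activity is then detected with CellTiter-Fluor.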

[3] = target: Luciferin 4-monooxygenase (Photinus pyralis) (UniProt P08659); experiment: qHTS assay to identify small molecule inhibitors of firefly luciferase (AID 1224835); note: potency is the fitted concentration of half-maximal effect; nearly all actives have a fitted effect of over 25% in size; settings: purified P. pyralis luciferase, luminescence inhibition; series mostly up to 115 µM
How it was run: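 Quantitative HTS format; KM concentrations of both substrates. Purified P. pyralis FLuc activity quantified from luminescence images.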

[4] = target: Nuclear receptor subfamily 1 group I member 3 (Homo sapiens) (UniProt Q14994); experiment: qHTS assay to identify small molecule agonists of the constitutive androstane receptor (CAR) signaling pathway (AID 1224839); settings: HepG2 hCAR CYP2B6-luciferase, agonist mode, 24 h; series mostly up to 92.4 µM; note: potency is the fitted concentration of half-maximal effect; nearly all actives have a fitted effect of over 15% in size
How it was run: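 HepG2 cells stably expressing hCAR and a CYP2B6-2.2kb luciferase reporter were treated with compounds at 15 concentrations plus 0.75 uM PK11195 (final) for 24 h at 37 C; luminescence was read after ONE-Glo addition.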

[5] = qHTS assay to identify small molecule antagonists of the estrogen related receptor (ERR) signaling pathway (AID 1224819;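 note: luminescence from an ERR-driven luciferase reporter measured with One-Glo reagent; % is set by controls: 0 for no effect and ±100 for the full control effect; nearly all actives have a fitted effect of over 50% in size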); settings: ERR reporter cell line, luciferase inhibition; series mostly up to 92.2 µM
How it was run: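 ERR reporter cells were plated at 2,000 cells/well and left 6 h at 37 C/5% CO2 before pin-tool transfer of compounds in DMSO. After 18 h at 37 C, One-Glo was added and luminescence was read 30 min later at room temperature.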

[6] = qHTS assay to identify small molecule antagonists of the constitutive androstane receptor (CAR) signaling pathway - cell viability counter screen (AID 1224837); settings: HepG2-CYP2B6-hCAR viability, CellTiter-Fluor, 23 h, co-treated with 50 nM CITCO; series mostly up to 92.4 µM; note: potency is the fitted concentration of half-maximal effect; nearly all actives have a fitted effect of over 45% in size
How it was run: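 In quantitative HTS format, compounds at 15 concentrations were applied to HepG2 cells double-transfected with hCAR and CYP2B6-2.2kb under 50 nM CITCO stimulation; live-cell protease activity was read after 23 hr via CellTiter-Fluor.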

[7] = target: Nuclear receptor subfamily 1 group I member 3 (Homo sapiens) (UniProt Q14994); experiment: qHTS assay to identify small molecule antagonists of the constitutive androstane receptor (CAR) signaling pathway (AID 1224838); settings: HepG2-CYP2B6-hCAR luciferase, CITCO-stimulated, 24 h; series mostly up to 92.4 µM; note: nearly all actives have a fitted effect of over 40% in size; note: potency is the fitted concentration of half-maximal effect
How it was run: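 CITCO-stimulated (50 nM final) HepG2 cells stably transfected with hCAR and CYP2B6-2.2kb luciferase were exposed to compounds at 15 concentrations for 24 h at 37 C/5% CO2. A luciferase reagent was added and luminescence recorded after 30 min.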

[8] = qHTS assay to identify small molecule antagonists of the estrogen related receptor signaling pathway with the pleiotropic PPARgamma coactivator (PGC) from Tox21 10K library - cell viability counter screen (AID 1224840; active = well fitted cell-killing curve with a large enough effect in the repeat runs, not every such curve was filed as active; inconclusive = weak or mixed curves, or effect the other way; inactive = no such curve, though single readings can be large or run the other way; note: nearly all actives have a fitted effect of over 40% in size; note: potency is the fitted concentration of half-maximal effect); settings: PGC/ERR reporter cells viability, CellTiter-Fluor, 17.5 h; series mostly up to 92.4 µM
How it was run: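 Viability counter screen, PGC/ERR cells: 17.5 h compound exposure at 37 C, CellTiter-Fluor fluorescence endpoint.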

[9] = qHTS assay to identify small molecule agonists of the hypoxia (HIF-1) signaling pathway - cell viability counter screen (AID 1224844; calls by dose curve; note: nearly all actives have a fitted effect of over 50% in size; note: potency is the fitted concentration of half-maximal effect); settings: HRE-bla ME-180 viability, CellTiter-Glo luminescence, 17 h; series mostly up to 76.8 µM
How it was run: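 Same wells as the HIF-1 reporter screen; ME-180 cells carrying HRE-bla, 17 hr treatment at 37C; CellTiter-Glo luminescence read after 30 min at room temperature.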

[10] = qHTS assay to identify small molecule agonists of the constitutive androstane receptor (CAR) signaling pathway - cell viability counter screen (AID 1224836); settings: HepG2-CYP2B6-hCAR viability, CellTiter-Fluor, 23 h, PK11195 added to every well; series mostly up to 92.4 µM; note: nearly all actives have a fitted effect of over 45% in size; note: potency is the fitted concentration of half-maximal effect
How it was run: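 HepG2 cells stably carrying hCAR and a CYP2B6-2.2kb reporter were plated 4 h, then given compounds at 15 concentrations plus PK11195 (final 0.75 uM). After 23 h at 37 C, viability was read by CellTiter-Fluor fluorescence.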

[11] = qHTS assay to identify small molecule antagonists of the estrogen related receptor signaling pathway with the pleiotropic PPARgamma coactivator (PGC) cell viability counter screen (AID 1224822; note: potency is the fitted concentration of half-maximal effect); settings: ERR/PGC reporter cell line viability counter screen; series mostly up to 46.1 µM
How it was run: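 Viable cell signal (CellTiter-Fluor, 30 min, 37 C/5% CO2) was measured in PGC/ERR cells after a 17.5 h compound incubation.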

[12] = target: Thyrotropin receptor (Homo sapiens) (UniProt P16473); experiment: qHTS assay to identify small molecule agonists of the thyroid stimulating hormone receptor (TSHR) signaling pathway (AID 1224843; calls by dose curve; note: nearly all actives have a fitted effect of over 45% in size; note: potency is the fitted concentration of half-maximal effect; for activation: % is set by controls: 0 for no effect and ±100 for the full control effect); settings: TSHR-HEK293 cells, cAMP HTRF, agonist mode, 30 min; activation: at 92.4 µM (top of the series) unless noted
How it was run: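 Using 15 concentrations per compound in triplicate, cAMP production was monitored in TSHR-HEK293 cells after 30 min compound incubation at RT; HTRF reagents followed, with fluorescence intensity recorded after 1 h.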

[13] = qHTS assay to identify small molecule antagonists of the estrogen related receptor (ERR) signaling pathway - cell viability counter screen (AID 1224818); settings: ERR reporter cell line viability counter screen; series mostly up to 46.1 µM; note: % is set by controls: 0 for no effect and ±100 for the full control effect
How it was run: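 Cytotoxicity check run alongside the ERR antagonist screen: cells exposed to test compounds 17.5 h at 37 C, viability taken as CellTiter-Fluor fluorescence intensity.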

[14] = qHTS assay to identify small molecule antagonists of the estrogen related receptor signaling pathway with the pleiotropic PPARgamma coactivator (PGC) from Tox21 10K library (AID 1224841; call rule not given here; note: potency is the fitted concentration of half-maximal effect; actives are mostly falling curves and most rising ones were filed inactive; nearly all actives have a fitted effect of over 50% in size); settings: PGC/ERR reporter cell line, ONE-Glo luciferase, 18 h; series mostly up to 92.4 µM
How it was run: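 In the PGC/ERR line, DMSO solutions of test chemicals are pin-delivered to 2,000 cells/well six hours after dispensing. Following eighteen hours' incubation, One-Glo reagent is added and luminescence recorded.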

[15] = tested on: estrogen-related receptor alpha (ERRalpha) with PGC-1alpha coactivator, human; experiment: qHTS assay to identify small molecule antagonists of the estrogen related receptor signaling pathway with the pleiotropic PPARgamma coactivator (PGC) (AID 1224821; calls by dose curve; note: potency is the fitted concentration of half-maximal effect; nearly all actives have a fitted effect of over 50% in size); settings: ERR/PGC reporter cell line, luciferase, antagonist mode; series mostly up to 46.1 µM
How it was run: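 Screening used NTP's PGC/ERR cells, dosed via pin tool with compound in DMSO alongside positive and negative controls. After 18 h at 37 C, One-Glo reagent sat 30 min at room temperature before luminescence detection.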
Tags give direction and shape of the fitted curve or compound fluorescence and quenching.

Sequence of UniProt P08659 (P08659 whole entry, looked up): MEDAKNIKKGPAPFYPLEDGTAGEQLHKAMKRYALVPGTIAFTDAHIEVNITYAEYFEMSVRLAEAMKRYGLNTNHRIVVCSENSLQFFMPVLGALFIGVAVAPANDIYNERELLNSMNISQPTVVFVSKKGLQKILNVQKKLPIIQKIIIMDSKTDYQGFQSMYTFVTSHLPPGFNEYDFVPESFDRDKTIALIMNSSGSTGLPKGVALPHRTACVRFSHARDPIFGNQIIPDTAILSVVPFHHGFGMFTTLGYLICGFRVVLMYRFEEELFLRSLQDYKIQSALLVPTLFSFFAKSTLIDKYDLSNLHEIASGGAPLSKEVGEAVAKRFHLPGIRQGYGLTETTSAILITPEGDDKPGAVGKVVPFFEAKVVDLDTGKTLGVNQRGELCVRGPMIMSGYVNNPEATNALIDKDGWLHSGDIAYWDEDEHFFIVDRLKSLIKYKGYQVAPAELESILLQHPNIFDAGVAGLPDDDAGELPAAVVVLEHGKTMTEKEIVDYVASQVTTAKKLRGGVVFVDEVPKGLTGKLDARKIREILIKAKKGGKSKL
Sequence of UniProt Q14994 (Q14994 whole entry, looked up): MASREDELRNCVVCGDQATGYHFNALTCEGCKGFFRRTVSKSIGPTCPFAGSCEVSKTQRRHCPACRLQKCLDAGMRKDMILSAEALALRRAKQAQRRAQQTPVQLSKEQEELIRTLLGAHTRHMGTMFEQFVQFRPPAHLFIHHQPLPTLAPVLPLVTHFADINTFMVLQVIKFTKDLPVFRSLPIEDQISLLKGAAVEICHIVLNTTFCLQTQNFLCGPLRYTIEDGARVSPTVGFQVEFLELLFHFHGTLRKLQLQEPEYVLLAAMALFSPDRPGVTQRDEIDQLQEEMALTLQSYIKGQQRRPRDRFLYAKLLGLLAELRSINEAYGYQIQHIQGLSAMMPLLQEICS
Sequence of UniProt P16473 (P16473 whole entry, looked up): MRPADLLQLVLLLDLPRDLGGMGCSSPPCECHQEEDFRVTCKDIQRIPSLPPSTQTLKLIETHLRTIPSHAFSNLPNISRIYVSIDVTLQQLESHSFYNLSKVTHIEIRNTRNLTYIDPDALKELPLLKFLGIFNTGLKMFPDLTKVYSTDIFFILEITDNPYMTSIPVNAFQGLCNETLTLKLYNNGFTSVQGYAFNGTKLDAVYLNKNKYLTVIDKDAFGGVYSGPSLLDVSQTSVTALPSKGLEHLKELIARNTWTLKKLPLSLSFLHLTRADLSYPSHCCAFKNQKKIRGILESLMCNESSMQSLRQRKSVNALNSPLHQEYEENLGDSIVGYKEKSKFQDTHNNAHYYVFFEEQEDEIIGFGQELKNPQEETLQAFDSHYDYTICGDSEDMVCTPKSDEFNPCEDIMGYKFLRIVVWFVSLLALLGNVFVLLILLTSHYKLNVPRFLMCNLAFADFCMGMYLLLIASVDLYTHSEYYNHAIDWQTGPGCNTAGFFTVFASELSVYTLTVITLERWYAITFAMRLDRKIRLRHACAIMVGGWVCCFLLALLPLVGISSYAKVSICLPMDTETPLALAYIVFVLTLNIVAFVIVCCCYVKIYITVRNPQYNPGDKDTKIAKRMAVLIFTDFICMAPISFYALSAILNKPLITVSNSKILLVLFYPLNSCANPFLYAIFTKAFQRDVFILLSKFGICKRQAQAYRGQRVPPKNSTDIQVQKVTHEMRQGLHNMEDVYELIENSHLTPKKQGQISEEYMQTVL

O=c1cc[nH]c(=O)[nH]1
Potency [1]: inactive

c1ccc2sc(SN3CCOCC3)nc2c1
Potency [1]: inconclusive: 29.8 µM [activator, partial curve] | Potency [2]: inactive | Potency [3]: inconclusive: 21.9 µM [inhibitor, partial curve] | Potency [4]: inconclusive: 26.6 µM [activator, partial curve]

CNC[C@H](O)[C@@H](O)[C@H](O)[C@H](O)CO
activation [1]: inconclusive: 0.275% [phenotype inactive]

CC(C)Cc1ccc(C(C)C(=O)O)cc1 (configuration not stated)
activation [1]: inconclusive: -3.19% [phenotype inactive] [at 94.8 µM] | Potency [5]: inactive

CCCCOC(=O)C(C)CC (configuration not stated)
Potency [1]: inconclusive: 48.6 µM [inhibitor, partial curve]

COc1cc(C=C2CCC/C(=C\c3ccc(O)c(OC)c3)C2=O)ccc1O
Potency [1]: active: 13.3 µM | Potency [2]: active: 13.3 µM | Potency [6]: inconclusive: 29.8 µM [cytotoxic, partial curve] | Potency [7]: inconclusive: 33.5 µM [inhibitor, single point] | Potency [8]: inconclusive: 7.5 µM [cytotoxic, full curve, poor fit] | Potency [9]: active: 15.1 µM

CC[C@H]1OC(=O)[C@H](C)[C@@H](O[C@H]2C[C@@](C)(OC)[C@@H](O)[C@H](C)O2)[C@H](C)[C@@H](O[C@@H]2O[C@H](C)C[C@H](N(C)C)[C@H]2O)[C@](C)(O)C[C@@H](C)C(=O)[C@H](C)[C@@H](O)[C@]1(C)O
activation [1]: inconclusive: -4.3% [phenotype inactive]

CC(=O)CCC(C)C
Potency [1]: inactive

C=CC(=O)OCCCCCCCC(C)C
activation [1]: inconclusive: -0.467% [phenotype inactive]

Cc1c[nH]c(=S)[nH]c1=O
Potency [1]: inconclusive: 48.7 µM [inhibitor, partial curve]

C[C@H]1C[C@H](O)c2ccsc2S1(=O)=O
Potency [1]: inactive

CC(=O)N[C@@H](CS)C(=O)O
activation [1]: inconclusive: 0.346% [phenotype inactive]

O=C(/C=C/c1ccccc1)OCCCc1ccccc1
Potency [1]: active: 61.1 µM

Cc1cc(C2CCCCC2)n(O)c(=O)c1
Potency [1]: inconclusive: 21.1 µM [inhibitor, partial curve] | Potency [2]: active: 9.44 µM | Potency [10]: inconclusive: 33.5 µM [cytotoxic, single point] | Potency [6]: active: 29.8 µM | Potency [9]: inconclusive: 30.1 µM [rising, single point]

O=c1c(O)c(-c2ccc(O)cc2O)oc2cc(O)cc(O)c12
Potency [1]: inconclusive: 2.57 µM [activator, partial curve] | Potency [2]: inconclusive: 64.5 µM [cytotoxic, single point] | Potency [3]: inconclusive: 66.8 µM [inhibitor, partial curve] | Potency [7]: inactive | Potency [9]: inconclusive: 16.3 µM [cytotoxic, partial curve, poor fit]

C=CC(=O)NC(C)(C)CS(=O)(=O)O
activation [1]: inconclusive: 6.94% [phenotype inactive] | Potency [2]: inactive

O=C(Oc1ccccc1)c1cccc(C(=O)Oc2ccccc2)c1
Potency [1]: active: 0.456 µM | Potency [11]: inconclusive: 0.154 µM [rising, partial curve, poor fit] | Potency [3]: inconclusive: 94.2 µM [inhibitor, partial curve, poor fit] | activation [12]: inconclusive: 32.5%

NC(=O)OCC(COC(N)=O)c1ccccc1
Potency [1]: inactive | Potency [13]: inactive | Potency [8]: inactive

CCCCCCCC/C=C\CCCCCCCCO
Potency [1]: inactive

CCCC1C(CC)=CC(CC)=CN1c1ccccc1 (configuration not stated)
activation [1]: inconclusive: 4.87% [phenotype inactive] | Potency [2]: inactive | Potency [14]: active: 34.4 µM | Potency [9]: inactive

O=C(O)CCCCCCCC(=O)O
Potency [1]: inactive

c1cc(C(c2ccc(OCC3CO3)cc2)C(c2ccc(OCC3CO3)cc2)c2ccc(OCC3CO3)cc2)ccc1OCC1CO1 (configuration not stated)
Potency [1]: active: 8.96 µM and active: 27.3 µM | Potency [2]: inconclusive: 89.6 µM [cytotoxic, partial curve, poor fit] | Potency [3]: inconclusive: 14.2 µM [inhibitor, full curve] | Potency [10]: inactive | Potency [4]: inconclusive: 44.9 µM [activator, partial curve] and inconclusive: 27.3 µM [activator, partial curve] | Potency [8]: inactive | Potency [14]: active: 79.8 µM

S=c1[nH]c2ccccc2s1
Potency [1]: active: 8.63 µM | Potency [15]: inconclusive: 21.7 µM [inhibitor, partial curve, poor fit] | Potency [11]: inconclusive: 21.7 µM [cytotoxic] | Potency [2]: inconclusive: 54.5 µM [cytotoxic, partial curve] | Potency [3]: active: 39.9 µM | Potency [8]: inconclusive: 27.3 µM [cytotoxic, full curve] | Potency [12]: inconclusive: 61.1 µM [falling, partial curve, poor fit] | Potency [9]: inconclusive: 43.6 µM [cytotoxic, partial curve]
